According to PubChem BioAssay AID504706 (National Center for Advancing Translational Sciences (NCATS), 2011):
Among all 320,000 compounds or so, about 200 (0.062%) were called active. The shares of active, inactive and inconclusive entries below differ from those in the screen. The call rests on the fitted dose curve; in most records, active means well fitted activation curve with a large enough effect; inconclusive means small, poorly fitted or top-dose-only effect; inactive means no such curve, though single readings can be large or run the other way. No potency is given beside an inconclusive call; the fits are too rough.

Assay: qHTS assay for re-activators of p53 using a Luc reporter; further: nearly all actives have a fitted effect of over 45% in size
Details: H1299 p53-A138V BP100-luciferase reporter, luminescence, 24 h; series mostly up to 92.2 µM
Outline: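 p53-null H1299 cells stably carrying temperature-sensitive p53-A138V and a BP100-luciferase reporter were pinned with compounds (4-point, 1:5 series) and held 24 hrs at 37 deg C. Luminescence was read 10 min after detection reagent.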
Potency means the concentration at half of the fitted maximal effect; tags describe the fitted curve by direction and shape.

| Compound | Potency |
| --- | --- |
| O=C(CN1C(=O)NC2(CCCCC2)C1=O)Nc1ccc(Cl)c(S(=O)(=O)N2CCOCC2)c1 | inactive |
| Cc1ccc(OCc2nc3ccccc3n2C)cc1 | inconclusive [activator, partial curve, poor fit] |
| Cc1cc(C)cc(OCC(=O)O/N=C(\N)c2ccccn2)c1 | inconclusive [activator, partial curve, poor fit] |
| Cc1cccn2c(=O)c3cc(C(=O)NC(C)C)c(=N)n(Cc4ccncc4)c3nc12 | inconclusive [activator, single point] |
| Cc1ccc2c(c1)NC(=O)[C@@]1(C)[C@@H](c3ccccc3)[C@H]3COc4ccc(Cl)cc4[C@@H]3N1C2=O | inactive |
| COCc1ccc(C(=O)N(C)CC2CCCN(CCc3ccc(Cl)cc3)C2)o1 (stereo not drawn) | inactive |
| Cc1ccc(Cn2c(/C=C/c3ccco3)nc3ccccc32)cc1 | inconclusive [activator, partial curve, poor fit] |
| Cc1ccc(C(=O)O/N=C(\N)c2cccnc2)cc1[N+](=O)[O-] | inconclusive [activator, partial curve, poor fit] |
| CSc1nc(N)nc(SCC(=O)Nc2cccc(F)c2)c1C#N | inconclusive [activator, full curve, poor fit] |
| COc1ccc(-c2cc(C(=O)Nc3cccc(O)c3)no2)cc1 | inactive |
| C#CCOCCOCCOCCNc1nc(N2CCN(C(=O)CCCCCCCCCCNC(=O)Cn3cc(C[C@@H](C)O)nn3)CC2)nc(N2CCN(C(=O)CCCCCCCCCCNC(=O)[C@@H]([C@H](C)O)n3cc(C)nn3)CC2)n1 | inconclusive [activator, full curve, poor fit] |
| CC(C)(C)c1ccc(OC2=CS(=O)(=O)c3ccccc32)cc1 | inconclusive [activator, full curve, poor fit] |
| Cc1nn(C(C)C(=O)O)c(=O)c2c1sc1ccccc12 (stereo not drawn) | inconclusive [activator, partial curve, poor fit] |
| O=C(Nc1ccccn1)c1ccc([N+](=O)[O-])o1 | inconclusive [activator, partial curve, poor fit] |
| CC(=Nc1ccccc1)c1sc2ccccc2c1O | inconclusive [activator, full curve, poor fit] |
| O=C(NNC(=O)C1CCCCC1)c1ccc(Br)cc1 | inconclusive [activator, single point] |
| COc1ccc(OCc2cc(C(=O)N(C)Cc3nnc(C)o3)no2)c(Cl)c1 | inconclusive [activator, partial curve, poor fit] |
| COc1ccccc1NC(=O)NNC(=O)c1ccc2ccccc2c1O | inactive |
| Cc1cc(C)c(C#N)c(SCC(=O)C2CC2)n1 | inactive |
| Cc1nonc1C(=O)N/N=C/c1ccc(O)c(O)c1 | inconclusive [activator, full curve, poor fit] |
| CCOc1ccc2nc(NC(=O)c3cccnc3)sc2c1 | inconclusive [activator, full curve, poor fit] |
| Cc1ccnc(NC(=O)c2ccc([N+](=O)[O-])s2)c1 | inconclusive [activator, full curve, poor fit] |
| Cc1cc(C)nc(NC(=O)CSc2nc3ccccc3s2)n1 | inconclusive [activator, partial curve, poor fit] |

| Compound | Potency |
| --- | --- |
| CCOC(=O)N1CCC(NC(=O)Cn2ncc3c4ccccc4n(C)c3c2=O)CC1 | inconclusive [activator, single point] |
| O=C(COC(=O)/C=C/c1cccs1)Nc1nc(-c2ccccc2)cs1 | inconclusive [activator, single point] |
| Cc1ccc(/C=N/Nc2ccc(F)cc2F)s1 | inconclusive [activator, partial curve, poor fit] |
| O=C(O)c1ccc(N/N=C/c2ccc(-c3cccc(Cl)c3)o2)cc1 | inconclusive [activator, full curve, poor fit] |
| Cc1ccc(/C=N/NC(=O)CSc2nc3ccccc3o2)cc1 | inconclusive [activator, partial curve, poor fit] |
| CCOc1ccc2nc(SCc3ccc(OC)cc3)sc2c1 | inconclusive [activator, single point] |
| Oc1c(Cl)cc(Cl)cc1/C=N/c1nccs1 | inconclusive [activator, single point] |
| Cc1sc(NC(=O)C2CCCCC2)c(C#N)c1-c1ccccc1 | inconclusive [activator, full curve, poor fit] |
| Cc1cc(C)n(-c2ccc3cccc(NS(C)(=O)=O)c3n2)n1 | inactive |
| C(=N\Nc1nc2ccccc2[nH]1)/c1cccc2cccnc12 | inconclusive [activator, partial curve, poor fit] |
| CC1Cc2cc(/C(O)=C3/C(=O)C(=O)N(CCCn4ccnc4)C3c3ccco3)ccc2O1 (stereo not drawn) | inconclusive [activator, partial curve, poor fit] |
| [O-]/[N+](=C\c1ccncc1)c1ccc(Br)cc1 | inconclusive [activator, partial curve, poor fit] |
| O=C(CCc1ccccc1)NC(=S)Nc1ccccc1Br | inconclusive [activator, single point] |
| Cc1ccc(CC(=O)CCc2ccccc2)cc1 | inconclusive [activator, partial curve, poor fit] |
| Cc1ccc(C)c(SCC(=O)Nc2ccc(C)c(S(=O)(=O)N3CCOCC3)c2)c1 | inconclusive [activator, partial curve, poor fit] |
| COc1ccc(OC)c(C2C(C(=O)Nc3nc4ccccc4s3)=C(C)NC3=C2C(=O)CCC3)c1 (stereo not drawn) | inactive |
| Cc1ccc(C(=O)N=c2sccn2C)cc1S(=O)(=O)N1CCOCC1 | inconclusive [activator, partial curve] |
| NC(=O)c1ccc(CN2CCc3ccccc3C2)cc1 | inactive |
| Cc1cccc(C(=O)NC(C(=O)Nc2nc(-c3ccccn3)cs2)C(C)C)c1 (stereo not drawn) | inconclusive [activator, single point] |
| CC1CCCN(S(=O)(=O)c2ccc(C(=O)Nc3nnc(-c4ccccn4)o3)cc2)C1 (stereo not drawn) | inactive |
| CSCC[C@H](NC(=O)OC(C)(C)C)C(=O)N/N=C/c1cccc2cccnc12 | inactive |
| O=C(NCc1ccc2c(c1)OCO2)c1ccccn1 | inactive |
| CCOc1ccc(NC(=O)NCCN2CCN(c3cccc(C)c3C)CC2)cc1 | inactive |

| Compound | Potency |
| --- | --- |
| N#C/C(=C(/O)COC(=O)COc1ccc(Cl)cc1)c1nc2ccccc2[nH]1 | inconclusive [activator, partial curve, poor fit] |
| CSc1ccccc1NC(=O)Cn1nc([N+](=O)[O-])cc1C | inconclusive [activator, single point] |
| Cc1ccc(C(=O)N2CCc3ccccc32)cc1 | inconclusive [activator, full curve, poor fit] |
| CCNC(=S)N/N=C/c1cccc(OCc2c(F)cccc2Cl)c1 | inactive |
| CC(C)C(=O)N1CCN(c2c(Cl)cccc2[N+](=O)[O-])CC1 | inactive |
| CC(C)(C)c1ccc(C(=O)NNC(=O)C2CCCCC2)cc1 | inconclusive [activator, partial curve, poor fit] |
| CCOc1ccc(CN2CCN(Cc3cnc(-c4ccccc4)s3)CC2CCO)cc1 (stereo not drawn) | inconclusive [activator, single point] |
| Cc1ccc(NC(=O)Nc2cccc(C)n2)cc1 | inconclusive [activator, full curve, poor fit] |
| O=C(Nc1cccc(-c2nc3cccnc3s2)c1)c1ccco1 | inactive |
| CC(C)(C)C(=O)NNC(=O)COc1ccc2ccccc2c1Br | inactive |
| CCc1ccc2nc(NC(=O)c3ccc4c(=O)[nH]c(CN5CCOCC5)nc4c3)sc2c1 | inconclusive [activator, full curve, poor fit] |
| Nc1n[nH]c(N)c1N=Nc1ccc(Cl)cc1 | inconclusive [activator, single point] |
| COc1cccc(C(=O)NC(=S)Nc2cccnc2)c1 | inconclusive [activator, partial curve, poor fit] |
| Cc1ccc(C2CC(c3cccs3)=NN2C(=O)CSC2=NCCS2)cc1 (stereo not drawn) | inactive |
| Cc1ccccc1NC(=S)c1ccc2ccccc2n1 | inconclusive [activator, partial curve, poor fit] |
| Cc1ccc(NC(=O)c2oc3ccccc3c2C)nc1 | inactive |
| CNC(=O)c1ccc(-c2ccccc2)s1 | inconclusive [activator, partial curve, poor fit] |
| Cc1oc(-c2ccc(-c3ccccc3)cc2)nc1CN(C)C1CCOC1 (stereo not drawn) | inactive |
| c1ccc(Nc2nc(-c3ccncc3)cs2)nc1 | inconclusive [activator, full curve, poor fit] |
| O=C(CNC(=O)c1ccccc1F)Nc1ccc2c(c1)CCC2 | inconclusive [activator, full curve, poor fit] |
| COc1cccc(-c2nc3ccccc3c(=O)o2)c1 | inconclusive [activator, single point] |
| CCN(CC(=O)Nc1ccc(C(=O)Nc2ccc(OC)cc2)cc1)Cc1nc2ccccc2c(=O)[nH]1 | inactive |
